Hit rate of the full screen: of about 370,000 compounds, about 150 (0.041%) were called active. The inconclusive results got no clear call from the source; some entries with a clear call stand among them for comparison. Calls follow the shape of the dose curve; as a rule, active = well fitted inhibition curve with a large enough effect; inconclusive = small, poorly fitted or top-dose-only effect; inactive = flat fitted curve, though single readings scatter. No potency is given beside an inconclusive call; the fits are too rough.
Target: Beta-lactamase (Escherichia coli (strain K12)) (UniProt P00811)
Experiment: qHTS Inhibitors of AmpC Beta-Lactamase (assay with detergent); also: nearly all actives have a fitted effect of over 25% in size
Conditions: AmpC hydrolysis of nitrocefin, absorbance 480 nm, 0.01% Triton; series mostly up to 114 µM
How it was run: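 20 mM phosphate pH 7.0 + 0.01% (detergent screen) or 0.0001% Triton X-100; 5.3 nM AmpC reagent; cpd preinc 15 min RT; nitrocefin (800 uM stock) to start; A480 q20 s × 4 min; Activity was normalised to no-enzyme and no-compound control wells.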
Potency is read from the fitted curve at half-maximal effect; tags tell the direction and shape of the fitted curve.

UniProt P00811, sequence (P00811 whole entry, looked up): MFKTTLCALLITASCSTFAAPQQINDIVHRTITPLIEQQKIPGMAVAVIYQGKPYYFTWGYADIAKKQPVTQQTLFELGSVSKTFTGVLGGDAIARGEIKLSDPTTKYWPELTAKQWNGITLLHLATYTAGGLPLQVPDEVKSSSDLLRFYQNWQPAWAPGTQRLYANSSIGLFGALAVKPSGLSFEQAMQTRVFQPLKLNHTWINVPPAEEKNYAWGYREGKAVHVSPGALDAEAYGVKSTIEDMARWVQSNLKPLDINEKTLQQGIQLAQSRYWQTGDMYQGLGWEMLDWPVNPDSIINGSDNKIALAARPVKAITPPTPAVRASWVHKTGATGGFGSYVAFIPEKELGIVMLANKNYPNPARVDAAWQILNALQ

Row | SMILES | Potency
1 | O=C(Nc1ccccc1C(F)(F)F)N1CCCC1c1cccnc1 (centres undefined) | inconclusive [inhibitor, single point]
2 | CCc1cc(C(=O)O)c(NC(=O)C(c2ccccc2)c2ccccc2)s1 | inconclusive [inhibitor, full curve]
3 | OC(CNCC(c1ccc(Cl)cc1Cl)c1c[nH]c2ccccc12)c1ccccc1 (centres undefined) | inconclusive [inhibitor, partial curve, poor fit]
4 | N#Cc1cc2c(nc1SCc1cccnc1)CCCCC2 | inactive
5 | CCOCCOCCC(C(=O)O)P(=O)(c1ccccc1)c1ccccc1 (centres undefined) | inconclusive [inhibitor, partial curve]
6 | O=C(COC(=O)/C=C/c1ccccc1)Nc1nnc(-c2ccccc2)o1 | inconclusive [inhibitor, single point]
7 | O=C(c1ccc(-n2cncn2)c([N+](=O)[O-])c1)N1CCN(S(=O)(=O)c2ccc(F)c(F)c2)CC1 | inconclusive [inhibitor, single point]
8 | CCOc1ccc(CCNC(=O)C(O)c2ccccc2)cc1 (centres undefined) | inconclusive [inhibitor, full curve, poor fit]
9 | Cc1cc(OCC(=O)Nc2cccc(S(=O)(=O)N3CCCCC3)c2)ccc1Cl | inactive
10 | C#CCOCCOCCOCCNc1nc(N2CCN(C(=O)CCCCCCCCCCNC(=O)Cn3cc(CCCCCN)nn3)CC2)nc(N2CCN(C(=O)CCCCCCCCCCNC(=O)Cn3cc(C[C@@H](C)O)nn3)CC2)n1 | inactive
11 | CCS(=O)(=O)c1ccc(O)c(N2C(=O)C3C4C=CC(C4)C3C2=O)c1 (centres undefined) | inconclusive [inhibitor, full curve, poor fit]
12 | O=C(Cc1ccc(-n2c(=S)[nH]c3ccccc3c2=O)cc1)N1CCN(c2ccccc2)CC1 | inactive
13 | COc1ccc(N2CCN(C(=O)Cn3nnc(-c4cccs4)n3)CC2)cc1 | inconclusive [inhibitor, full curve, poor fit]
14 | CC(C)(C)c1ccc(C(=O)C2CCCN(C(=O)C3CCOCC3)C2)cc1 (centres undefined) | inactive
15 | O=C(c1ccco1)N1CCN(CC(=O)N2c3ccccc3CCc3ccccc32)CC1 | inactive
16 | COc1ccccc1NC(=O)c1oc2ccccc2c1NC(=O)C1CCCCC1 | inactive
17 | CCN(CC)CCCNC(=O)CC1Oc2ccc(C)cc2NC1=O (centres undefined) | inconclusive [inhibitor, full curve, poor fit]
18 | NC(N)=Nc1nc(-c2ccccc2)c2ccccc2n1 | inactive
19 | CC(C)(C)NC(=O)c1ccc2c(c1)N(CC(=O)N1CCN(c3ccccc3F)CC1)C(=O)C(C)(C)O2 | inconclusive [inhibitor, partial curve, poor fit]
20 | COc1cc2c(cc1OC)C1(CCCC1)CNC2c1ccc([N+](=O)[O-])cc1 (centres undefined) | inconclusive [inhibitor, single point]
21 | COc1cccc(CNc2ccc(S(N)(=O)=O)cc2)c1OC | inconclusive [inhibitor, full curve]
22 | CN(C)CCCOc1ccc(C(C)(C)c2ccccc2)cc1 | inactive

Row | SMILES | Potency
23 | Cc1ccc(C)c(S(=O)(=O)NC(C)C(=O)NCc2ccccn2)c1 (centres undefined) | inactive
24 | COc1ccc(CNc2nc3ccc(C)cc3s2)c(OC)c1OC | inconclusive [inhibitor, full curve, poor fit]
25 | CCOc1ccc(C(=O)Nc2nnn(CC)n2)cc1 | inconclusive [inhibitor, partial curve]
26 | CCc1cc(-c2n[nH]c(=S)n2-c2ccccc2C)cs1 | inactive
27 | CCN(CC(=O)Nc1c(F)cccc1F)C(=O)C1CCC1 | inconclusive [inhibitor, full curve, poor fit]
28 | COC(=O)c1ccc(COC(=O)C(NC(=O)Cc2ccccc2)C(C)C)cc1 (centres undefined) | inactive
29 | CC(C)S(=O)(=O)c1csc(NC(=O)Nc2cc(Cl)ccc2Cl)c1Cl | inactive
30 | COc1ccc(/C=C/c2nc(S(=O)(=O)c3ccccc3)c(N(C)C)o2)cc1OC | inconclusive [inhibitor, full curve, poor fit]
31 | Cc1nc2cc(NC(=O)c3ccco3)ccc2n1C | inactive
32 | OC1CCN(c2ncnc3nc[nH]c23)CC1 | inconclusive [inhibitor, full curve]
33 | CN1CCN(C(=O)/C(=C/c2cccs2)NC(=O)c2ccco2)CC1 | inconclusive [inhibitor, single point]
34 | O=C(O)C1CCCN1S(=O)(=O)c1ccc2ccccc2c1 (centres undefined) | inconclusive [inhibitor, single point]
35 | COc1ccc(C2NC(=S)NC3=C2CCc2cc(OC)ccc23)cc1 (centres undefined) | inconclusive [inhibitor, single point]
36 | CCCCC1CN2CCc3c([nH]c4ccccc34)C2(C)C1 (centres undefined) | inconclusive [inhibitor, full curve, poor fit]
37 | CSc1ccc(CSCC(=O)N2CCN(S(=O)(=O)c3ccc(C)cc3C)CC2)cc1 | inconclusive [inhibitor, single point]
38 | COc1ccc(S(=O)(=O)N(CC(=O)Nc2cccnc2)c2ccc(Cl)cc2)cc1 | inactive
39 | COc1ccc2oc(=O)c(-c3ccccc3C(=O)N3CCOCC3)cc2c1 | inconclusive [inhibitor, partial curve, poor fit]
40 | CC(=O)N(/N=C/c1cccc(C)c1)c1nc(-c2ccc(Br)cc2)cs1 | inconclusive [inhibitor, partial curve, poor fit]
41 | CCCCCCOC(=O)Sc1nc2ccccc2o1 | inactive
42 | O=C(COC(=O)CCNS(=O)(=O)c1ccc2c(c1)OCCO2)NC1CCCc2ccccc21 (centres undefined) | inconclusive [inhibitor, full curve, poor fit]
43 | Cc1cccc2nc(-c3cccnc3)c(NCCC(C)C)n12 | inconclusive [inhibitor, single point]
44 | Cc1nc(N2CCN(c3ccccn3)CC2)c2c(C)c(C(=O)Nc3c(C)cc(Br)cc3C)sc2n1 | inactive

From PubChem BioAssay AID485294 (National Center for Advancing Translational Sciences (NCATS), 2010)
